Experimental data published in patent US6407099B1, “Arylpiperidinopropanol and arylpiperazinopropanol derivatives and pharmaceuticals containing the same” (Suntory Limited, priority 1997, dated 2002).
At least one compound was matched to its structure with a doubt left.

The compounds below were run on lipid peroxidation (assay: Lipid peroxidation suppressing effect (brain membrane preparation, malonaldehyde and 4-hydroxyalkenals)). Conditions: rat brain membrane preparation, 37° C., 30 minutes.
Format: biochemical, Wistar rats
Protocol: Lipid Peroxidation Suppressing Effect
The whole brains of Wistar rats (10 weeks old, male) were excised and homogenized in the 10 times volumes of 50 mM phosphate-buffered solution (pH=7.4) (hereinafter referred to as PBS). The centrifuged supernatent was further diluted fourfold and the result was used as the brain membrane preparation. The membrane preparation was incubated in the presence of vehicle (0.5% DMSO) or compound at 37° C. for 30 minutes and an automatic oxidation reaction promoted. The reaction was stopped by 35% perchloric acid, then the total of the main decomposition products of the peroxidized lipids present in the centrifuged supernatent, that is, malonaldehyde and 4-hydroxyalkenals, was measured using a BIOXYTECH®/LPO-586™ peroxidized lipid colorimetric assay kit (OXIS International, Inc.) and used as an indicator of the lipid peroxidation.

SMILES	IC50 [nM]
Cc1c(C)c(NCC(O)CN2CCC(c3ccc(Oc4ccccc4)cc3)CC2)c(C)c(C)c1N (stereo not shown) [Compound 58, 3-[(4-amino-2,3,5,6-tetramethyl)phenylamino]-1-[4-(4-phenoxyphenyl)piperidin-1-yl]-2-propanol]	370
COc1ccc(NCC(O)CN2CCC(c3ccc(Oc4ccccc4)cc3)CC2)c(C)c1 (stereo not shown) [Compound 53, 1-[4-(4-phenoxyphenyl)piperidin-1-yl]-3-[(4-methoxy-2-methyl)phenylamino]-2-propanol]	270
Cc1cc(N)c(C)c(C)c1OC[C@@H](O)CN1CCC(c2ccc(Oc3ccccc3)cc2)CC1 [Compound 38, (2S)-1-[(4-amino-2,3,6-trimethyl)phenoxy]-3-[4-(4-phenoxyphenyl)piperidin-1-yl]-2-propanol]	3600
Cc1cc(OC[C@@H](O)CN2CCC(c3ccc(Oc4ccccc4)cc3)CC2)c(C)c(C)c1N [Compound 26, (2S)-1-[(4-amino-2,3,5-trimethyl)phenoxy]-3-[4-(4-phenoxyphenyl)piperidin-1-yl]-2-propanol]	250
Cc1cc(OC[C@@H](O)CN2CCN(c3ccc(Cc4ccc(F)cc4)cc3)CC2)c(C)c(C)c1N [Compound 28, (2S)-1-[(4-amino-2,3,5-trimethyl)phenoxy]-3-[4-(4-(4-fluorophenyl)methylphenyl)piperazin-1-yl]-2-propanol]	220
Cc1cc(OC[C@@H](O)CN2CCC(c3ccc(Oc4ccc(F)cc4)cc3)CC2)c(C)c(C)c1N [Compound 29, (2S)-1-[(4-amino-2,3,5-trimethyl)phenoxy]-3-[4-(4-(4-fluorophenoxy)phenyl)piperidin-1-yl]-2-propanol]	380
Cc1cc(C)c(OC[C@@H](O)CN2CCC(c3ccc(Oc4ccccc4)cc3)CC2)c(N)c1 [Compound 46, (2S)-1-[(2-amino-4,6-dimethyl)phenoxy]-3-[4-(4-phenoxyphenyl)piperidin-1-yl]-2-propanol]	8600
Cc1cc(N)c(C)c(C)c1OC[C@@H](O)CN1CCC(c2ccc(Oc3ccc(F)cc3)cc2)CC1 [Compound 39, (2S)-1-[(4-amino-2,3,6-trimethyl)phenoxy]-3-[4-(4-(4-fluorophenoxy)phenyl)piperidin-1-yl]-2-propanol]	720
Cc1cc(OC[C@@H](O)CN2CCN(c3ccc(Cc4ccc(F)cc4)cc3)CC2)c(C)cc1N [Compound 34]	800
Cc1cc(N)c(C)c(C)c1OC[C@@H](O)CN1CCN(c2ccc(Cc3ccc(F)cc3)cc2)CC1 [Compound 40, (2S)-1-[(4-amino-2,3,6-trimethyl)phenoxy]-3-[4-(4-(4-fluorophenyl)methylphenyl)piperazin-1-yl]-2-propanol]	3600
